Reference: PubChem BioAssay AID1347120 (National Center for Advancing Translational Sciences (NCATS), 2019)
In all, about 390,000 compounds went through this assay and about 930 (0.24%) were called active. The inconclusive results got no clear call from the source; some entries with a clear call stand among them for comparison. The call rests on the fitted dose curve; in most records, active means well fitted activation curve with a large enough effect; inconclusive means small, poorly fitted or top-dose-only effect; inactive means no such curve, though single readings can be large or run the other way. Potencies beside an inconclusive call are fits to weak or partial responses and may not hold up.

Experiment: qHTS for Suppressors of FUS Proteinopathy: Primary screen using FUS-linked yeast assay; further: nearly all actives have a fitted effect of over 55% in size
Conditions: S. cerevisiae FUS-expressing, OD600, 24 h; Potency: growth rescue; series mostly up to 76.6 µM
In short: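 Cultures pregrown in 2.5% raffinose medium are shifted to minimal medium containing 2% galactose to express toxic FUS. Compounds are tested at several concentrations. After 24hr at 30C, growth is quantified at 600 nm absorbance.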
Potency means the concentration at half of the fitted maximal effect; tags describe the fitted curve by direction and shape.

Structure (SMILES) | Potency
CCCCCCn1c(COc2ccccc2F)nnc1SCC(=O)N1c2ccccc2NC(=O)C1(C)C | inconclusive: 25.1 µM [activator, single point]
COc1ccc(/C=N\Nc2ccc([N+](=O)[O-])cc2)c(C(=O)O)c1OC | inactive
COc1cccc(/C=C/C(=O)c2cccc([N+](=O)[O-])c2)c1OC | inactive
COc1ccc(-c2ccc(CN3C(CC(C)C)C(=O)N(Cc4cn(CC5CCCCC5)nn4)CCS3(=O)=O)cc2)cc1OC (stereo not given) | inactive
CC[C@@]1(C(=O)OC)N[C@H](CN(C)C(=O)Nc2ccc(OC)cc2)[C@@H]2C(=O)N(Cc3ccccc3)C(=O)[C@@H]21 | inactive
O=C(CC12CC3CC(CC(C3)C1)C2)NC(=S)Nc1ccc(CN2CCOCC2)cc1 | inconclusive: 3.98 µM [activator, full curve]
O=c1[nH]c(CN2CCN(Cc3ccccc3)CC2)nc2scc(-c3ccccc3)c12 | inconclusive: 28.2 µM [activator, partial curve, poor fit]
Cc1ccc(-c2cc3nc(-c4ccco4)cc(N4CCN(Cc5ccoc5)CC4)n3n2)cc1 | inconclusive: 22.4 µM [activator, partial curve]
COc1cc(C2c3c(oc4cc(C)c(C)cc4c3=O)C(=O)N2CCCN2CCOCC2)ccc1O (stereo not given) | inconclusive: 25.1 µM [activator, single point]
Cc1c(C(=O)N2CCC(c3nc4ccccc4s3)CC2)oc2cc(Br)ccc12 | inconclusive: 50.1 µM [activator, single point]
COc1ccc(CN2C(=O)C(NC(=O)c3ccc(C)cc3)(C(F)(F)F)N=C2c2ccccc2)cc1 (stereo not given) | inactive
O=C(CC1C(=O)NCCN1Cc1ccc(Cl)c(F)c1)NCC1CCOCC1 (stereo not given) | inconclusive: 14.1 µM [activator, partial curve, poor fit]
CCCCCn1c(N2CCC(Cc3ccccc3)CC2)nc2c1c(=O)[nH]c(=O)n2C | inconclusive: 20 µM [activator, single point]
O=C(CCCn1c(=O)c2cccn2c2cccnc21)NCCc1ccc(Cl)cc1 | inactive
COc1ccc(C(=O)NCCc2ccc(Cl)cc2)cc1S(=O)(=O)N1CCCCC1C (stereo not given) | inconclusive: 17.8 µM [activator, single point]
O=C(NCc1cccs1)[C@@H]1CSC2c3ccccc3C(=O)N21 (stereo not given in full) | inconclusive: 44.7 µM [activator, single point]
O=S1(=O)CC(O)C(Nc2ccccc2)C1 (stereo not given) | inconclusive: 5.01 µM [activator, full curve, poor fit]
Cc1occc1-c1nnc(SCC(=O)c2cc3ccccc3oc2=O)o1 | inconclusive: 31.6 µM [activator, single point]
CCCN1C(=O)C(NC(=O)c2ccccc2OC)(C(F)(F)F)C(C(=O)OC)=C1C (stereo not given) | inconclusive: 31.6 µM [activator, partial curve, poor fit]
COc1ccc(N2C(=O)NC3CC2(C)Oc2ccc(Br)cc23)cc1OC (stereo not given) | inactive
COc1ccc(-c2cc(N3CCCC3)n3ncnc3n2)cc1 | inactive
CN(CCc1ccccc1)C(=O)c1ccc(NC(=O)Cc2ccc(NC(=O)C3CCN(C(=O)C4CCCC4)CC3)cc2)cc1 | inconclusive: 50.1 µM [activator, single point]

Structure (SMILES) | Potency
COc1cc(NC(=O)c2ccccc2)c(C)cc1NC(=O)CSc1nnc(COc2ccccc2)n1Cc1ccco1 | inconclusive: 28.2 µM [activator, partial curve, poor fit]
O=C1CC(/C=C/c2ccc(Cl)cc2)=Nc2ccccc2N1 | inconclusive: 50.1 µM [activator, single point]
Cc1cccc(Cn2c(CN3CCC(C(=O)NCCc4ccccc4)CC3)cc3ccccc32)c1 | inconclusive: 12.6 µM [activator, partial curve]
Cc1cc(C)n2nc(C(=O)Nc3ccn(Cc4ccccc4C)n3)cc2n1 | inconclusive: 15.8 µM [activator, partial curve, poor fit]
Cc1sc2ncn(CC(=O)Nc3cccc(C(F)(F)F)c3)c(=O)c2c1S(=O)(=O)N1CCC(C)CC1 | inactive
COC(=O)[C@]12CCCCC=C1N(Cc1ccc3c(c1)OCO3)C(=O)[C@H](CC(=O)N1CCC(c3ccccc3)CC1)C2 | inconclusive: 28.2 µM [activator, single point]
Cc1ccc(Cl)cc1NC(=O)Cn1c(=O)c(CNc2ccccc2)cc2cc3c(cc21)OCCO3 | active: 28.2 µM
COc1ccc(C(=O)NCCc2sc(-c3cccc(F)c3)nc2C)cc1 | inconclusive: 31.6 µM [activator, single point]
CCc1ccc(CN(C)C(=O)c2cc(COc3cccc(C(F)(F)F)c3)on2)nc1 | inconclusive: 31.6 µM [activator, single point]
CSCCC(NS(=O)(=O)c1ccc(Cl)cc1)C(=O)OCC(=O)NC1CCCCC1 (stereo not given) | inconclusive: 28.2 µM [activator, single point]
CCOc1ccc(NS(=O)(=O)c2ccc(C(=O)N(C)CC(=O)Nc3ccc(C)cc3)cc2)cc1 | inconclusive: 17.8 µM [activator, partial curve, poor fit]
CCCc1cc(=O)oc2c(CN(CC)CC)c(O)c(Cl)cc12 | inconclusive: 8.91 µM [activator, partial curve, poor fit]
CCCn1c(=O)c2sccc2n2c(CCCC(=O)N3CCN(c4ccccc4)CC3)nnc12 | inactive
COc1ccccc1N(Cc1ccccc1)S(=O)(=O)c1cccc(C(=O)NCC2CCCO2)c1 (stereo not given) | inconclusive: 28.2 µM [activator, single point]
C[C@@H]1COc2cc(N3CCSCC3)ccc2S(=O)(=O)N1C | inactive
CCCCCCCCN1C(=O)[C@H](CC(=O)N2CCCC2)C[C@@]2(C(=O)OC)CCCCC=C12 | active: 6.31 µM
CCSc1ccc(-c2nn(-c3ccccc3)cc2/C=C(/C#N)C(=O)NC)cc1 | inactive
O=C(NCC(c1cccs1)N1CCOCC1)c1cn(-c2ccccc2)nc1-c1ccc(F)cc1 (stereo not given) | inactive
CCN(CCn1cccn1)C(=O)C1CCC(=O)N(CCN2CCOCC2)C1 (stereo not given) | inactive
C#CCOC(=O)Nc1cccn(Cc2c(Cl)cccc2Cl)c1=O | inactive
O=C(COc1ccc(Br)cc1Cl)c1ccc[nH]1 | inactive
Cc1nc(CS(=O)(=O)c2ccccc2)cc(Sc2ccccc2Cl)n1 | inactive

Structure (SMILES) | Potency
COc1ccc(-c2cc(C(=O)NCc3ccc(Cl)cc3)no2)cc1OC | inactive
O=C(Nc1cc2c3c(c1)C1CCCC1CN3CC1CCCC21)c1ccccc1 (stereo not given) | inconclusive: 25.1 µM [activator, partial curve, poor fit]
CCN(c1ccc(OC)cc1)S(=O)(=O)c1cc(-c2cc(C)no2)ccc1OC | inconclusive: 31.6 µM [activator, single point]
CNc1nc(-c2ccc3c(c2)CCN3C(=O)c2ccccc2F)cs1 | inconclusive: 31.6 µM [activator, partial curve]
CCCCNC(=O)CSc1nc2ccc(Nc3nc(N4CCOCC4)nc(N4CCOCC4)n3)cc2s1 | inconclusive: 35.5 µM [activator, single point]
Cc1ccc(N(C)S(=O)(=O)c2cccc(C(=O)OCC(=O)c3c(N)n(C)c(=O)n(C)c3=O)c2)cc1 | inconclusive: 28.2 µM [activator, partial curve, poor fit]
CCOC(=O)c1cc2c(=O)n3ccccc3nc2n(CC2CCCO2)c1=NC(=O)c1cccc(C(F)(F)F)c1 (stereo not given) | inactive
CCN(CC)S(=O)(=O)c1ccc(N2CCOCC2)c(NC(=O)CC(C)(C)C)c1 | inactive
O=C(c1cccs1)N1CCN(Cc2cccnc2)CC1 | inconclusive: 11.2 µM [activator, single point]
CCCCOCCCNC(=O)C[C@@H]1C[C@@]2(C(=O)OCC)CCCC=C2N(Cc2cccc3ccccc23)C1=O | inconclusive: 10 µM [activator, full curve]
Cc1cc(C)c(Cn2c(C)c(CNCCCc3ccccc3)c(C(=O)O)c2C)c(C)c1 | inconclusive: 28.2 µM [activator, single point]
O=C1c2ccccc2NC(c2ccc(-c3ccc(F)cc3)o2)N1O (stereo not given) | inactive
CN(Cc1ccccc1)C(=O)c1ccc(NC(=O)Cc2ccc([N+](=O)[O-])cc2)cc1 | inconclusive: 22.4 µM [activator, single point]
CC1CCc2sc(C(=O)N/N=C/C3CCCCC3)cc2C1 (stereo not given) | inactive
COc1ccccc1NC(=O)N1c2ccccc2Sc2ccccc21 | inconclusive: 50.1 µM [activator, single point]
CCOC(=O)C1=CC[C@H]2c3c(c4ccccc4n3C)C(=O)C1N2C(=O)OC(C)(C)C | inconclusive: 22.4 µM [activator, partial curve]
COc1ccc(-c2nc3cc(NC(=O)Cc4ccc(Cl)cc4)ccc3o2)cc1OC | inactive
CCOC(=O)c1ccc(NC(=O)Cn2nc(SC)c(S(=O)(=O)c3ccc(Cl)cc3)c2N)cc1 | inconclusive: 28.2 µM [activator, single point]
COC(=O)[C@@]12C[C@@H](CC(=O)NCc3ccc(OC)c(OC)c3)C(=O)N(CCc3ccc(OC)c(OC)c3)C1=CCC(C)(C)C2 | inconclusive: 39.8 µM [activator, single point]
Cc1cccc(C)c1NC(=O)c1ccc2c(c1)N(Cc1cccc(Cl)c1)C(=O)c1ccccc1S2=O (stereo not given) | inconclusive: 11.2 µM [activator, partial curve]
CCCCC(=O)Nc1cc(C)c(O)c(-c2nc3ncccc3o2)c1 | inactive
